# Screen size: about 360,000 compounds; about 6,000 (1.7%) were called active. Inconclusive results, whose numbers are uncertain, are shown with a selection of clear calls. Calls come from the whole dose curve; as a rule, active = well fitted cell-killing curve with a large enough effect; inconclusive = small, poorly fitted or top-dose-only effect, or effect the other way; inactive = flat fitted curve, though single readings scatter. Potencies of inconclusive entries are left out as doubtful fits.
# Assay: qHTS for induction of synthetic lethality in tumor cells producing 2HG: qHTS for the HT-1080-NT fibrosarcoma cell line;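 note: NT is the 2HG producing partner of a matched IDH1 knockdown line; nearly all actives have a fitted effect of over 55% in size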;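 for activity, negative = less viability: 0% = DMSO-treated cells and -100% = media-only wells without cells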
# Details: HT-1080-NT fibrosarcoma viability, CellTiter-Glo ATP luminescence, 48 h; activity, negative = less viability: at 46.1 µM (top of the series) unless noted
# Procedure, shortened: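 Viability of the 2HG-overproducing fibrosarcoma line after 48 hours of compound exposure at 37 degrees C was determined by luminescence with CellTiter-Glo, and concentration-effect curves were then fitted and categorized.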
# Potency is the fitted concentration of half-maximal effect; tags give direction and shape of the fitted curve.
Structure (SMILES),Potency,"activity, negative = less viability"
CN(CC(=O)Nc1ccccc1Cl)CC(=O)N(C)c1c(N)n(Cc2ccccc2)c(=O)[nH]c1=O,inactive,
CC(C)C(=O)Nc1ccc(C(=O)CSc2nnc(C3CC3)n2C2CC2)cc1,inactive,
COc1ccc(CCn2c(C)cc3c(c2=O)C(c2ccc4c(c2)OCO4)C(C#N)=C(N)O3)cc1OC (centres undefined),,inconclusive: -30.5% [cytotoxic]
CCc1nc2ccc(C(=O)NCCCN(C)C)cn2c1N(C)Cc1ccc(OC)cc1,"inconclusive [cytotoxic, partial curve, poor fit]",
Cc1ccc2c(c1)N(C(=O)CCC(=O)NC1CCC(C)CC1)CCO2 (centres undefined),"inconclusive [rising, single point]",
COc1ccc(C(c2nnnn2-c2ccc3c(c2)OCCO3)N2CCN(C/C=C/c3ccccc3)CC2)cc1 (centres undefined),"inconclusive [cytotoxic, single point]",
Cc1nnc(-c2cnn(-c3ccccc3)c2N)n1Cc1ccncc1,inactive,
O=C(Cc1ccc(-n2cccc2)cc1)NCc1ccccc1Cl,active: 8.2 µM,
COCCN(C(=O)CSc1nnc(-c2ccccc2F)o1)c1c(N)n(Cc2ccccc2)c(=O)[nH]c1=O,inactive,
Cn1c2ccccc2c(=O)c2ccc(C#CC3(O)CCCCC3)cc21,"inconclusive [cytotoxic, single point]",
Cc1ccc2c(c1)N(CC(=O)NC1CCCCCC1)C(=O)c1cccnc1O2,inactive,
Cc1ccc(SCCNC(=O)c2ccc(C)c(S(=O)(=O)Nc3ccccc3C)c2)cc1,"inconclusive [cytotoxic, single point]",
Cc1cc(Cl)ccc1OCC(=O)N[C@@H](Cc1ccccc1)c1nc2ccccc2[nH]1,"inconclusive [cytotoxic, single point]",
Cc1onc(-c2ccccc2Cl)c1C(=O)OCC(=O)c1ccc2c(c1)OCCO2,inactive,
Cc1csc(NC(=O)CSc2nnc(-c3ccc(Cl)cc3)n2N)n1,"inconclusive [cytotoxic, single point]",
CCOC(=O)c1cc2c(c(-c3cccc(-c4cc5ccccc5o4)c3)n1)[C@@H](CCO)N(S(=O)C(C)(C)C)C2 (some centres undefined),"inconclusive [cytotoxic, single point]",
CCN(CC)C(=S)NC(=O)c1ccc(Cl)cc1Cl,active: 7.08 µM,
O=C(CCNS(=O)(=O)c1ccccc1)N1CCCCCCC1,inactive,
O=Cc1coc2ccc3ccccc3c2c1=O,"inconclusive [cytotoxic, single point]",
CC(C)C(NC(=O)c1ccc(C(C)(C)C)cc1)C(=O)Nc1cccc(S(N)(=O)=O)c1 (centres undefined),"inconclusive [cytotoxic, single point]",
COc1cc(-c2nc3ccc(C)cn3c2NCc2ccccc2)ccc1-c1cccc(Cl)c1,"inconclusive [cytotoxic, single point]",
O=C(COC(=O)CCOc1ccccc1)Nc1ncc(Cl)cc1Cl,inactive,
N#C/C(=C\c1ccc(/C=C(/C#N)c2nn(CCO)c(N)c2C#N)cc1)c1nn(CCO)c(N)c1C#N,"inconclusive [cytotoxic, single point]",

Structure (SMILES),Potency,"activity, negative = less viability"
C[C@@H](c1ccccc1)N1C[C@@H](COCc2ccccc2)Oc2cc(N3CC[C@@H](N(C)C)C3)ccc2S1(=O)=O,active: 18.4 µM,
NC(=O)C1(N2CCCCC2)CCN(C(=O)c2ccc(C#Cc3ccccc3)o2)CC1,"inconclusive [cytotoxic, partial curve]",
CCSc1ccc(-c2cc(NC=O)c3ncc(-c4cc(OC)c(OC)c(OC)c4)n3c2)cc1,"inconclusive [cytotoxic, single point]",
C=CCOc1c(Br)cc(/C=N/n2c(CC)n[nH]c2=S)cc1Br,"inconclusive [cytotoxic, single point]",
COc1ccc(S(=O)(=O)N2CCC(C(=O)NN3CCCCC3)CC2)cc1,inactive,
CC1CCc2ccc(F)cc2N1S(=O)(=O)c1cccs1 (centres undefined),"inconclusive [cytotoxic, partial curve]",
O=C(Nc1nc(-c2ccccn2)cs1)c1ccco1,"inconclusive [cytotoxic, full curve, poor fit]",
COc1ccc(CS(=O)/C(Cl)=C(/Cl)C(=O)Nc2ccc(OC)nc2)cc1 (centres undefined),active: 1.3 µM,
COc1ccc(-c2nc3ccccn3c2NCc2ccc3c(c2)OCO3)cc1,inactive,
O=C(/C=C/Nc1cccc(C(F)(F)F)c1)c1ccc(Oc2ncccn2)cc1,inactive,
CCCCC[C@@H](C)N1C[C@@H](COCc2ccccc2)Oc2cc(N3CCC[C@H]3CO)ccc2S1(=O)=O,"inconclusive [cytotoxic, single point]",
CCOc1ccc(C(=O)C2CCN(CC(=O)Nc3ccccc3N3CCOCC3)CC2)cc1,"inconclusive [cytotoxic, partial curve]",
CCn1ncc(CN2CCN(Cc3cccc(OC)c3)C(CCO)C2)c1C (centres undefined),inactive,
COc1ccc(-c2coc3c(C(=O)NCc4ccco4)cccc23)c(C)c1,active: 18.4 µM,
O=C(NC(CSCc1ccccc1)C(=O)N/N=C/c1ccc(O)cc1O)c1ccc([N+](=O)[O-])cc1 (centres undefined),active: 2.82 µM,
CC(=O)c1c(C)[nH]c(C(=O)OCc2ccccc2)c1C,"inconclusive [cytotoxic, single point]",
COC(=O)c1cn[nH]c1NC(=S)Nc1ccc(Cl)c(Cl)c1,"inconclusive [cytotoxic, single point]",
N#CCc1c(C#N)c(N)nc(N2CCOCC2)c1C#N,"inconclusive [cytotoxic, single point]",
CC(C)C(N)c1csc(NC(=O)Nc2ccccc2C(C)(C)C)n1 (centres undefined),"inconclusive [cytotoxic, single point]",
CC(=O)/C(=N\Nc1ccccc1Cl)Sc1cccc2cccnc12,active: 20.6 µM,
C[C@H](NC(=O)c1nc[nH]c1C(=O)N[C@@H](Cc1ccccc1)C(=O)OC(C)(C)C)c1ccccc1,"inconclusive [cytotoxic, single point]",
CCN(C(=O)c1ccc2c(Cl)c3c(nc2c1)CCC3)c1ccc(C)c(C)c1,"inconclusive [cytotoxic, single point]",
NC(=O)c1ccc(NC(=O)COC(=O)c2cc3ccccc3cc2O)cc1,"inconclusive [cytotoxic, single point]",

Structure (SMILES),Potency,"activity, negative = less viability"
CN1C(=O)C(O)(CC(=O)/C=C\c2ccc3c(c2)OCO3)c2ccccc21 (centres undefined),"inconclusive [cytotoxic, single point]",
Cc1ccc(S(=O)(=O)N(CC2CO2)c2cc(Cl)ccc2Cl)cc1 (centres undefined),"inconclusive [cytotoxic, single point]",
O=C(Nc1ccc(Oc2ccccc2)cc1)C1CCN(c2c3c(nc4ncnn24)CCC3)CC1,inactive,
CCOC(=O)N1CCN(C(=S)Nc2ccc3nc(N4CCN(CC)CC4)cc(C)c3c2)CC1,inactive,
Cc1ccc2ccccc2c1C(O)c1ncc(-c2ccc(Cl)cc2)[nH]1 (centres undefined),"inconclusive [cytotoxic, single point]",
Cc1ccc(S(=O)(=O)NCCNc2ccc([N+](=O)[O-])cc2C(F)(F)F)cc1,inactive,
Cc1ccccc1NC(=O)Cc1nc(COC(=O)c2ccc(S(C)(=O)=O)c([N+](=O)[O-])c2)cs1,"inconclusive [cytotoxic, single point]",
Brc1ccc(CNc2nc3ccccc3n2CCN2CCCCC2)cc1,"inconclusive [cytotoxic, single point]",
COC(=O)c1cc2sccc2n1CC(=O)Nc1cccc(SC)c1,"inconclusive [cytotoxic, single point]",
CCCNC(=O)COc1coc(CN2CCN(c3ccccc3F)CC2)cc1=O,inactive,
CCCNC(=O)c1cc2c(c(-c3cccc(-c4ccccc4F)c3)n1)[C@@H](CCO)N(C(=O)CC1CC1)C2,"inconclusive [cytotoxic, single point]",
CC(/C=N/NC(=O)c1cc(-c2ccc(Cl)cc2)nc2ccccc12)=C\c1ccco1,"inconclusive [cytotoxic, full curve, poor fit]",
COc1ccc(Sc2nc(-c3ccccn3)ncc2OC)cc1,"inconclusive [cytotoxic, single point]",
CCCOc1ccc(C(=O)NNC(=S)NC(=O)c2cc(-c3ccc(Cl)cc3)nc3ccccc23)cc1,,inconclusive: -20.7% [cytotoxic]
O=C(Nn1cnnc1)c1ccc([N+](=O)[O-])cc1Cl,inactive,
Cc1noc(C(=O)Nc2ccc3c(c2)OCO3)c1Cl,"inconclusive [cytotoxic, single point]",
Cc1ccc(CNC(=O)Cc2ccc(-n3c(=O)[nH]c4ccsc4c3=O)cc2)cc1,active: 3.66 µM,
O=C1NC(O)CCN1C1CC(O)C(CO)O1 (centres undefined),"inconclusive [rising, partial curve, poor fit]",
Cc1cc(C)cc(NC(=O)CN2CCN(c3ccccc3)CC2)c1,inactive,
COc1ccc(C2(CNC(=O)c3cccs3)CCOCC2)cc1,inactive,
CCCn1c(SCC(=O)Nc2cc(S(=O)(=O)N3CCCCC3)ccc2C)n[nH]c1=O,inactive,
O=C(NC(=S)Nc1ccc(NC(=O)c2cccs2)cc1)c1cc2ccccc2o1,active: 20.6 µM,
CC(C)COc1cccc(C(=O)Nc2ccc(S(=O)(=O)N3CCOCC3)cc2)c1,"inconclusive [cytotoxic, single point]",

# Reference: PubChem BioAssay AID686970 (National Center for Advancing Translational Sciences (NCATS), 2013)
